Experimental data as given in article PMC2724708, “Adenosine Kinase of T. b. rhodesiense Identified as the Putative Target of 4-[5-(4-phenoxyphenyl)-2H-pyrazol-3-yl]morpholine Using Chemical Proteomics” (PLoS Neglected Tropical Diseases, 2009).

Target: T1, adenosine kinase of T. b. rhodesiense (TbrAK) (Trypanosoma brucei rhodesiense, UniProt Q584S0)
T1 sequence (Q584S0 1-345): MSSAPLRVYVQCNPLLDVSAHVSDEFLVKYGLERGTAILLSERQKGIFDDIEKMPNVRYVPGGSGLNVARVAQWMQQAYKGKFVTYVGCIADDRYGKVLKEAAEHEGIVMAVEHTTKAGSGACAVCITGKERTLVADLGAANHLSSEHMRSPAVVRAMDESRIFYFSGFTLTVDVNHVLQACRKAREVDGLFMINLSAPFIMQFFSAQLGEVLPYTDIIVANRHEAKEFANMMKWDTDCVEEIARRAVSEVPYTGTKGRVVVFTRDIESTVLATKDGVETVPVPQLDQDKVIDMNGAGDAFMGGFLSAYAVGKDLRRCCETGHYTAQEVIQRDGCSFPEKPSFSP
Test: Isothermal titration calorimetry (ITC) with TbrAK
Type: binding
Procedure: Isothermal titration calorimetry (ITC) was employed to elucidate the binding affinity of compound 1 toward TbrAK. All solutions were degassed for 5 min with gentle stirring under vacuum. TbrAK was dialyzed into buffer E2 (20 mM Tris, 150 mM NaCl, pH 7.5, 5% glycerol), diluted to 7 µM and supplemented with 1% DMSO, filtered and filled into the sample cell. The ligand solution was prepared by diluting a stock solution of compound 1 or 5 in DMSO with buffer E2 to give a final concentration of 150 µM and 1% DMSO. The final ligand solution was filtered before use. A titration experiment consisted of a first control injection of 1 µl followed by 27 injections, each of 10 µl and 20 s duration, with a 4-min interval in between. Raw data were collected, corrected for ligand heats of dilution, integrated and fit to the two-set non-interacting binding sites model using the Origin® software supplied with the instrument. The measurements were performed at least in duplicate.

## c1ccc(Oc2ccc(-c3cc[nH]n3)cc2)cc1 [compound 5, 3-(4-phenoxyphenyl)-1H-pyrazole]
  specific heat release on titration of TbrAK: no specific heat release
